# Assay results taken from PubChem BioAssay AID504332 (National Center for Advancing Translational Sciences (NCATS), 2011).
# Among all 350,000 compounds or so, about 31,000 (8.9%) were called active. Inconclusive means that the source gave no clear call. Such entries were picked first, then a sample of the others. The call rests on the fitted dose curve; in most records, active means well fitted inhibition curve with a large enough effect; inconclusive means small, poorly fitted or top-dose-only effect; inactive means no such curve, though single readings can be large or run the other way. Where the call is inconclusive, the potency comes from a doubtful curve fit.
# Target: Histone-lysine N-methyltransferase EHMT2 (Homo sapiens) (UniProt Q96KQ7)
# Test: qHTS Assay for Inhibitors of Histone Lysine Methyltransferase G9a; further: nearly all actives have a fitted effect of over 75% in size
# Details: G9a H3K9 monomethylation, AlphaScreen, 2 h; activity, negative = inhibition: at 59 µM (top of the series) unless noted
# How it was run: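 Step 1: enzyme (final 20 nM) with compound, 15 min RT. Step 2: substrate peptide 500 nM and SAM 20 uM, 2 h RT. Step 3: anti-H3K9me1 antibody and AlphaScreen beads, 10 min, then plate read.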
# On the % scale 0 is the no-effect control and ±100 the full control effect; potency means the concentration at half of the fitted maximal effect; tags describe the fitted curve by direction and shape.
# Sequence of UniProt Q96KQ7 (Q96KQ7 whole entry, looked up): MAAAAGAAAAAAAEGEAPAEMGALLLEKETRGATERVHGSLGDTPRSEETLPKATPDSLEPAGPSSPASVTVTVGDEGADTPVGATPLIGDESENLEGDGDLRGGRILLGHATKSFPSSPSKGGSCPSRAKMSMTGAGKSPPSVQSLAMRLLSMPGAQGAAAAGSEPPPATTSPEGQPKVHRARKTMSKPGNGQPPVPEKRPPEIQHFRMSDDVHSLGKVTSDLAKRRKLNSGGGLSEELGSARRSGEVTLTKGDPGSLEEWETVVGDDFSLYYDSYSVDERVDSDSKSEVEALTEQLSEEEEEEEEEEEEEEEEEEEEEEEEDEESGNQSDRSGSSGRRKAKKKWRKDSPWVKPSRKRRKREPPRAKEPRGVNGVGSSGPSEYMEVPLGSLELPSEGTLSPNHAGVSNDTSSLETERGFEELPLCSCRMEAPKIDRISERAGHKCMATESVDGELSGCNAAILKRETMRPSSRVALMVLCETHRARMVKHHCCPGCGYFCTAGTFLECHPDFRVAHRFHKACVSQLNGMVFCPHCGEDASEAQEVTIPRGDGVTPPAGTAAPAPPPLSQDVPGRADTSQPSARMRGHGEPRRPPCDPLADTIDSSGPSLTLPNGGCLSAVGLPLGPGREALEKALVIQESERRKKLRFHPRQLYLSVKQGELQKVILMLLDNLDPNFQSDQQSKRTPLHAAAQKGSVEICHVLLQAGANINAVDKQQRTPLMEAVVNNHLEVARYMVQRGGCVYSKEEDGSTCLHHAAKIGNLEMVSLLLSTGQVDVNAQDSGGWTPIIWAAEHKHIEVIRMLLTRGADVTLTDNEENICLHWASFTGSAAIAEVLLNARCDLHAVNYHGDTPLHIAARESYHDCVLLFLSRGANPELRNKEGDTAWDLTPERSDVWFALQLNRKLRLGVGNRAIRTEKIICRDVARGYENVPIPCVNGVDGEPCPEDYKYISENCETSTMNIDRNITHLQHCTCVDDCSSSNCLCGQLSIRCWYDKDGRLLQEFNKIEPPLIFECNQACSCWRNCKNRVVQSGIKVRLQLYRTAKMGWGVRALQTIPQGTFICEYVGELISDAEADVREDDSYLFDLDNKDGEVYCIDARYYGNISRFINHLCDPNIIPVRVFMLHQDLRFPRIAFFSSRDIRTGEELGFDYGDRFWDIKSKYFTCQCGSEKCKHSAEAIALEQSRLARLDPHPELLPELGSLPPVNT
SMILES,Potency,"activity, negative = inhibition"
COc1ccc(N2CCN(S(=O)(=O)c3c[nH]c(=O)[nH]c3=O)CC2)cc1,"inconclusive: 39.8 µM [inhibitor, partial curve, poor fit]",
O=C(NNC(=O)C1CC(c2cccnc2)=NO1)Nc1cccc(F)c1 (configuration not stated),"inconclusive: 39.8 µM [inhibitor, partial curve, poor fit]",
Cc1ccc(NC(=O)C2CCN(S(=O)(=O)c3cnc[nH]3)CC2)cc1C,inactive,
CC(=O)c1ccc(NC(=O)C2CCCN(S(=O)(=O)c3ccc(Br)s3)C2)cc1 (configuration not stated),"inconclusive: 6.31 µM [inhibitor, single point]",
O=C(CN1C(=O)S/C(=C\c2ccc(-c3cc(C(=O)O)ccc3Cl)o2)C1=O)Nc1ccc2c(c1)OCO2,"inconclusive: 3.55 µM [inhibitor, full curve, poor fit]",
CC1(C)CC(=O)C2=C(C1)NC1=C(C(=O)c3ccccc31)C2c1cccnc1 (configuration not stated),"inconclusive: 25.1 µM [inhibitor, full curve]",
COc1ccccc1OCCn1cc(C(=O)c2ccco2)c2ccccc21,"inconclusive: 4.47 µM [inhibitor, single point]",
N#CC1=C(S)N(c2ccccc2)C(c2ccc(-c3cc(Cl)ccc3Cl)o2)NC1=O (configuration not stated),"inconclusive: 22.4 µM [inhibitor, single point]",
CSC1=N/C(=C\c2cccc(F)c2)C(=O)S1,"inconclusive: 50.1 µM [inhibitor, partial curve, poor fit]",
COC(=O)c1ccccc1NC(=O)Nc1cccnc1,,inactive: -7.23% [at 12.7 µM]
CCc1ccc(NCc2cc3ccc(OC)cc3n(CC(=O)Nc3ccccc3OC)c2=O)cc1,"inconclusive: 3.55 µM [inhibitor, full curve]",
Cn1nccc1C(=O)OCC(=O)Nc1ccc(S(N)(=O)=O)cc1,inactive,
Cn1c(=O)[nH]c(=O)c2c1nc(SCCCO)n2CCCc1ccccc1,"inconclusive: 25.1 µM [inhibitor, single point]",
OCCN1CCN(C(=S)c2ccc(Br)cc2)CC1,active: 22.4 µM,
NC(=O)CN1CCN(CCN2C(=O)c3cccc4cccc(c34)C2=O)CC1,inactive,
CCCOc1ccc(C(=O)Nc2cc(-c3nn4c(C)nnc4s3)ccc2C)cc1,inactive,
CCOc1ccc(N(CC)C(=O)c2cc3c(s2)-c2ccc(Cl)cc2SC3)cc1,inactive,
Cc1ccc(CN2CCN(Cc3ccccc3-c3ccco3)CC2CCO)o1 (configuration not stated),inactive,
Cc1ccc(C(=O)NCCSc2c[nH]c3ccccc23)cc1C,"inconclusive: 10 µM [inhibitor, partial curve, poor fit]",
Cc1ccn2c(Nc3ccc4c(c3)OCO4)c(-c3ccc(C)o3)nc2c1,active: 15.8 µM,
COc1ccc(CCNC(=O)C(=O)NCC2CCCN2S(=O)(=O)c2ccccc2)cc1OC (configuration not stated),"inconclusive: 89.1 µM [inhibitor, single point]",
CCN1C(=O)C(O)(C2COC(C)(C)CC2=O)c2ccccc21 (configuration not stated),inactive,
COc1ccc(C(=O)c2cc([N+](=O)[O-])ccc2N2CCCC2)cc1,"inconclusive: 31.6 µM [inhibitor, single point]",
CC(Oc1ccc(Br)cc1)C(=O)Nc1ccc(S(=O)(=O)N(C)C2CCN(C)CC2)cc1 (configuration not stated),active: 35.5 µM,

SMILES,Potency,"activity, negative = inhibition"
O=C(NCc1ccc(F)cc1)c1c2c(nc3ccccc13)CCC2,"inconclusive: 44.7 µM [inhibitor, partial curve, poor fit]",
COc1cc(C(c2c(C)[nH][nH]c2=O)c2c(C)[nH][nH]c2=O)ccc1OS(=O)(=O)c1ccccc1,active: 22.4 µM,
COc1ccc(OC)c(/C=N/NC(=O)c2cc[n+](CC(=O)c3ccccc3)cc2)c1,active: 79.4 µM,
O=C(Nc1ccccc1Br)c1c(F)cccc1Cl,inactive,
Cc1nnc(SCC(=O)Nc2sc3c(c2C(N)=O)CCC(C)C3)[nH]c1=O (configuration not stated),inactive,
Cc1ccc(C(CC(=O)N2CCOCC2)c2ccco2)cc1 (configuration not stated),,inconclusive: -59.8% [inhibitor]
Cc1cccc(S(=O)Cc2ccc(C(=O)N3CCN(C(=O)c4ccco4)CC3)o2)c1 (configuration not stated),inactive,
CC1(C)Cc2nc3sc(C(=O)NCCO)c(N)c3cc2CO1,active: 11.2 µM,
CCCOC(=O)c1ccc(NC(=O)C2CC(=O)N(c3ccc(C)cc3)C2)cc1 (configuration not stated),inactive,
NCCCC[C@H](NC(=O)C1CCNCC1)c1nnc([C@@H](N)CO)o1,"inconclusive: 3.98 µM [inhibitor, single point]",
Cc1cccc(C)c1NC(=O)NC1(C(=O)N2CCCC2)CCCCC1,inactive,
CCOc1ccc(NC(=O)CCN2C(=O)C3CCCCC3C2=O)cc1OCC (configuration not stated),,inactive: 2.82% [at 0.501 µM]
Cc1ccc(C(=O)OCC(=O)Nc2cccc(S(=O)(=O)N3CCOCC3)c2)o1,,inactive: 2.73% [at 12.7 µM]
CC(/C=N/n1c(-c2ccc(C)cc2)n[nH]c1=S)=C\c1ccco1,active: 1.26 µM,
COc1cccc(CNCCc2c[nH]c3ccccc23)c1OCc1ccccc1F,active: 44.7 µM,
COc1cc(O)ccc1-c1nc2ccc(Br)cn2c1Nc1ccccc1C,"inconclusive: 14.1 µM [inhibitor, partial curve, poor fit]",
CCN(CC)S(=O)(=O)c1cccc(C(=O)Nc2cccnc2)c1,"inconclusive: 63.1 µM [inhibitor, partial curve, poor fit]",
O=C(CCS(=O)(=O)c1ccc2c(c1)NC(=O)CS2)NCCc1ccc(Cl)cc1,inactive,
c1ccc2sc(NC3=NCN(C4CCCCCC4)CN3)nc2c1,inactive,
Cc1cc(-c2nc3ncccc3o2)ccc1NC(=S)NC(=O)c1ccco1,"inconclusive: 39.8 µM [inhibitor, partial curve, poor fit]",
COc1ccc2c(c1)OCC1=C2CCC2(C)C(=O)CC=C12 (configuration not stated),"inconclusive: 39.8 µM [inhibitor, single point]",
O=C(NCCCN1CCCC1)c1ccc2c(c1)N(Cc1ccc(F)cc1)C(=O)c1ccccc1S2=O (configuration not stated),"inconclusive: 89.1 µM [inhibitor, single point]",
N#Cc1nc(-c2ccccc2)oc1N1CCCCC1,"inconclusive: 31.6 µM [inhibitor, partial curve, poor fit]",
